# Measurements from PubChem BioAssay AID1347073 (National Center for Advancing Translational Sciences (NCATS), 2019).
# The campaign covered roughly 45,000 compounds. About 200 (0.44%) were called active. Not shown: some 7% with an inconclusive outcome. The call rests on the fitted dose curve; in most records, active means well fitted activation curve with a large enough effect; inconclusive means small, poorly fitted or top-dose-only effect; inactive means no such curve, though single readings can be large or run the other way. Some of the results follow.
# Assay: qHTS of TDP-43 Inhibitors: NCGC Sytravon Library Screen; further: 0% is about no effect; nearly all actives have a fitted effect of over 55% in size
# Conditions: yeast TDP-43 toxicity rescue, BacTiter-Glo growth, 24 h; series mostly up to 46.1 µM; growth rescue (activation): at the top concentration
# Method in brief: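 TDP-43-expressing yeast, pregrown in raffinose, seeded at OD600 0.02 in galactose medium with compound for 24 hr at 30 deg C. Growth read by BacTiter-Glo luminescence, so rescue of toxicity appears as activation.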
row,Compound,growth rescue (activation)
1,O=S(=O)(c1ccc(F)cc1)N1CCN(Cc2ccccn2)CC1,inactive: -4.76%
2,COc1ccccc1COC(=O)N/C=C/c1ccco1,inactive: -2.95%
3,CSCCC(NC(=O)/C(=C\c1ccc(Cl)cc1)NC(=O)c1ccccc1)C(=O)O (configuration not stated),inactive: 4%
4,CCOC(=O)N1CCN(C(=S)NC(=O)c2nn(C)cc2Br)CC1,inactive: 11.6%
5,COc1ccc(/C=C2\SC(=S)N(Cc3cccnc3)C2=O)cc1C,inactive: -14.7%
6,Cc1nnc(SCC(=O)NCC(=O)Nc2ccc(F)c(F)c2F)n1N,inactive: 10.8%
7,Cc1cccc(N2C(=O)c3cccc4c(N5CCCCC5)c([N+](=O)[O-])cc(c34)C2=O)c1C,inactive: 9.64%
8,Cc1cc(Br)ccc1S(=O)(=O)n1ccnc1C,inactive: 3.72%
9,Cn1c(=O)cc(OCC(=O)NCc2cccs2)c2ccccc21,inactive: 10.5%
10,CC(C)c1ccccc1NC(=O)C1CN(S(=O)(=O)c2ccccc2)CCN1S(=O)(=O)c1ccccc1 (configuration not stated),inactive: 7.96%
11,Cc1ccc(-c2cn3nc(C)c(C)nc3n2)cc1,inactive: -9.56%
12,CCCNC(=O)c1cnc(Sc2ncc(C(F)(F)F)cc2Cl)n1C,inactive: 27.4%
13,COc1ccc(OC)c(-c2csc(NC(=O)Cc3cc(OC)c(OC)c(OC)c3)n2)c1,inactive: 9.8%
14,CCCC(=O)N1CCC1(C)C(=O)Nc1cccc(OC(C)C)c1 (configuration not stated),inactive: 1.39%
15,O=C(CSc1nnc(SCc2ccc(Cl)cc2)s1)N/N=C/c1c(Cl)cccc1Cl,inactive: 1.56%
16,Cc1oc(-c2cccs2)nc1CN1CC[C@@](O)(c2ccccc2)[C@H]2CCCC[C@@H]21,inactive: 0.476%
17,O=C(NC1CCCCC1)C1CCN(c2ncccn2)CC1,inactive: -0.824%
18,Cc1ccc(S(=O)(=O)N[C@H](C(=O)OCC(=O)NC(=O)NCc2ccco2)C(C)C)cc1,inactive: -5.83%
19,COc1ccc(NC(=O)C(C)N2CCN(C)CC2)cc1 (configuration not stated),inactive: 4.55%
20,CC(C)C[C@H](NC(=O)NC1CCCc2ccccc21)C(=O)O (some centres not stated),inactive: 6.43%
21,Cc1cc(C)nc(NC(=O)CSc2nn(-c3ccccc3)c(=S)s2)n1,inactive: 5.09%
22,CC(Sc1ccc(S(=O)(=O)N2CCOCC2)cn1)c1ccccc1Cl (configuration not stated),inactive: -10.9%

row,Compound,growth rescue (activation)
1,COc1cc2nc(/C=C/c3cc(OC)c(OC)c(OC)c3)sc2cc1SC,inactive: -0.655%
2,COC(=O)c1cccc(NC(=O)CCSc2ccc(Cl)cc2)c1C,inactive: 2.15%
3,N/C(=N\OC(=O)COc1ccc(Cl)cc1Cl)c1cccnc1,inactive: 18.2%
4,CSc1ccccc1NC(=O)C1CCCN(S(C)(=O)=O)C1 (configuration not stated),inactive: 1.01%
5,CSc1nc(SCC(N)=O)c2c3c(sc2n1)CN(C)CC3,inactive: -45.2%
6,CC1(C(=O)NS(=O)(=O)c2ccccc2Cl)CCN1C(=O)CCc1ccc(Cl)cc1Cl (configuration not stated),inactive: -1.53%
7,CCCCNC(=O)N1CCc2ccccc2C1,inactive: 3.82%
8,Cn1c(C(=O)NCc2ccccc2F)cc2oc3ccccc3c21,inactive: 9.36%
9,CCCn1c(SCc2ccc(C(=O)OC)o2)nc2ccccc2c1=O,inactive: 15.6%
10,COc1ccc(C2CC(c3ccc([N+](=O)[O-])cc3)=NN2C(C)=O)cc1 (configuration not stated),inactive: -10.9%
11,Cc1ccc(F)cc1C(=O)N1CCCC(C)(C(=O)NS(=O)(=O)C2CC2)C1 (configuration not stated),inactive: 11.8%
12,Cc1ccc(NC(=O)c2cc(S(=O)(=O)NCCc3ccccc3)ccc2F)cc1Cl,inactive: 12.7%
13,O=C(CN(Cc1ccccc1)C(=O)CCC(=O)Nc1ccccn1)NCc1ccc(F)cc1,inactive: 0.449%
14,COc1cc(OC)c(OC)cc1/C=N/NC(=O)c1ccc(CSc2nc(C)cc(C)n2)cc1,inactive: 25.4%
15,NC1=NC2(CCC(c3ccccc3)CC2)n2c(nc3ccccc32)N1 (configuration not stated),inactive: -9.05%
16,COc1ccc(/C(C)=N/NC(=O)c2nnn(-c3nonc3N)c2-c2ccccc2)cc1,inactive: 13.3%
17,O=C(NC1CCCC1)C(c1c(F)cccc1Cl)N(C(=O)c1csnn1)C1CC1 (configuration not stated),inactive: 13.1%
18,O=C(O)CSc1nnc(CNc2ccc(F)cc2)n1-c1ccccc1,inactive: 0.093%
19,Cc1ccc(O)c(NC(=O)c2cc(C)no2)c1,inactive: 26.3%
20,CCOC(=O)c1cc(CC)sc1NC(=O)COc1ccc2c(C)cc(=O)oc2c1,inactive: 30.6%
21,Cc1cc(C)nc(NS(=O)(=O)c2ccc(NC(=O)C3(c4ccccc4)CCCC3)cc2)n1,inactive: 7.37%
22,Cn1c(CO)cnc1S(=O)(=O)Cc1ccc(Cl)cc1,inactive: 7.86%

row,Compound,growth rescue (activation)
1,CCOc1ccc(C(=O)N(Cc2sccc2C)C2CCS(=O)(=O)C2)cc1 (configuration not stated),inactive: 5.37%
2,COc1ccc(CCNC(=O)COc2ccc(N(C)S(=O)(=O)c3ccc(C)cc3)cc2)cc1OC,inactive: 3.63%
3,Cc1ccc(NC(=O)/C(=C\c2ccco2)NC(=O)c2ccco2)cc1,inactive: -17.2%
4,COc1ccccc1CCNC(=O)C1CCN(C(=O)/C=C/c2ccccc2)CC1,inactive: 22.3%
5,COc1ccc(C(=O)NC(=S)NCc2cccnc2)cc1Cl,inactive: 17.8%
6,COCc1ccc(CN2CCC(CO)(CC3CCCCO3)CC2)o1 (configuration not stated),inactive: 13.3%
7,O=C(Nc1nc2ccccc2[nH]1)c1ccccc1,inactive: 7.83%
8,COc1ccc(CONc2ncnc3nonc23)cc1[N+](=O)[O-],inactive: -11.5%
9,CC(=O)Nc1ccc(NC(=O)c2nc(S(=O)(=O)Cc3cccc(C)c3)ncc2Cl)cc1,inactive: 5.34%
10,Cc1ccc(S(=O)(=O)c2cc(OC(=O)c3ccco3)ccc2OC(=O)c2ccco2)cc1,inactive: -8.34%
11,COc1cccc(C(c2nnnn2CC2CCCO2)N2CCN(C(=O)c3ccco3)CC2)c1OC (configuration not stated),inactive: -3.24%
12,Cc1cc(OCCCC(=O)NCCN2C(=O)S/C(=C\c3cccnc3)C2=O)ccc1Cl,inactive: 5.8%
13,COc1ccccc1NC(=O)COC(=O)CNC(=O)C1CCCCC1,inactive: 13.6%
14,O=c1oc2cc(O)ccc2cc1-c1nc2c(s1)CCc1ccccc1-2,inactive: 21.9%
15,Cc1c(Br)ccc(NC(=O)Cn2nc(-c3cccs3)ccc2=O)c1C,inactive: 22.9%
16,COc1ccc(-c2csc3nc(-c4cccnc4)nc(N4CCC(C(N)=O)CC4)c23)cc1OC,inactive: -6.84%
17,Cc1ccc(NC(=O)CSCc2ccco2)cc1,inactive: 27%
18,CC(O)CN1CC(O)=C(c2nc3ccccc3s2)C1=N (configuration not stated),inactive: 6.33%
19,CCn1cnc2cc(NCc3ccc(Br)cc3)ccc21,inactive: 11%
20,Cc1ccc(NC(=O)C(=O)NCCN2CCN(C(=S)Nc3ccccc3)CC2)cc1,inactive: 13.1%
21,Cc1sc(NC(=O)CSc2n[nH]c(N)n2)c(C#N)c1C,inactive: -3.32%
22,CCc1cc(CNC(=O)CCc2nnc(Cc3cccc(C)c3)o2)on1,inactive: 2.61%

row,Compound,growth rescue (activation)
1,CN(C)C(=O)CN1CCN(Cc2cn(C)nc2-c2ccc3c(c2)OCCO3)CC1,inactive: 12.8%
2,COc1cc(C(=O)N[C@@H](Cc2c[nH]c3ccccc23)C(=O)O)cc(OC)c1OC,inactive: 12.6%
3,CON(c1nc(Cl)nc(N(C)C)n1)S(=O)(=O)c1ccc(C)cc1,inactive: 21.9%
4,CCOC(=O)COc1c(Cl)cc(C2NC(=S)NC(c3ccccc3)=C2C(C)=O)cc1OC (configuration not stated),inactive: -9.89%
5,O=C(N/N=C/c1ccc[nH]1)c1ccncc1,inactive: -8.54%
6,CC(C)OC(=O)CC1C(=O)NCCN1C(=O)COc1ccc(C(C)(C)C)cc1 (configuration not stated),inactive: 0.725%
7,O=C(COc1ccc(Br)cc1)NNC(=S)NC(=O)c1ccccc1[N+](=O)[O-],inactive: -3.07%
8,CNc1cnc(-c2cc(OC)c(OC)c(OC)c2)cn1,inactive: 3.39%
9,Nc1nnc(CC(=O)N/N=C/c2ccc(-c3ccc(F)cc3)o2)s1,inactive: -1.34%
10,CCCNC(=O)C1(C)CCCN(C(=O)COCc2ccccc2)C1 (configuration not stated),inactive: 3.72%
11,Cc1ccc(-c2cn3nc(-c4ccccc4)c(-c4ccccc4)nc3n2)cc1,inactive: 16.1%
12,Cc1ccc(Nc2nc(C)cs2)cc1,inactive: 14.9%
13,CN(C)C(CNC(=O)C1CCCN1C(=O)c1cccs1)c1ccccc1 (configuration not stated),inactive: -7%
14,O=C(COc1ncnc2ccccc12)Nc1ccc(S(=O)(=O)N2CCOCC2)cc1,inactive: -6.59%
15,Cc1ccc(NC(=O)COC(=O)CC2CC3CCC2C3)cc1S(=O)(=O)N1CCOCC1 (configuration not stated),inactive: 23.8%
16,O=C(NN=C1CCCCC1)c1cc(-c2ccccc2)n[nH]1,inactive: 0.728%
17,O=C(NCc1ccccc1)c1ccc(-c2cn[nH]c2)c2ccoc12,inactive: -25%
18,COc1ccccc1Oc1ccc(N/C=C/C(=O)c2ccc(C)o2)cc1,inactive: -3.67%
19,COc1cccc(NC(=S)N(Cc2ccc(C(=O)O)cc2)Cc2ccc(OC)c(OC)c2)c1,inactive: -15.5%
20,COc1cc(/C=C/C(=O)O)cc(S(=O)(=O)NCCCC(=O)O)c1OC,inactive: -6.95%
21,O=C(C1=C[C@@H]2[C@H]3C(=O)N(c4cccc(Cl)c4)C(=O)[C@H]3[C@@H](C(=O)c3ccc(Cl)cc3)N2C=C1)c1ccccc1,inactive: 2.98%
22,COc1ccc2[nH]c(=O)c(CNC3CCCCC3)cc2c1,inactive: -1.03%

row,Compound,growth rescue (activation)
1,COc1ccc(NC(=S)N2CCOCC2)c(OC)c1,inactive: 14.7%
2,Cc1cc(=O)[nH]c(N/N=C/c2ccc(OC(=O)c3cccnc3)cc2)n1,inactive: -10.8%
3,CCCCN(CC)CCNC(=O)CN1C(=O)COc2ccc(S(=O)(=O)N3CCCC3)cc21,inactive: 6.98%
4,Cc1ccc(C(=O)N2CCC(C(=O)NCc3ccco3)CC2)cc1,inactive: -6.75%
5,O=C(CCNC(=O)c1ccccc1Cl)Nc1cccc(S(=O)(=O)N2CCCCC2)c1,inactive: 14.9%
6,COc1ccc(CCC(=O)Nc2ccc(S(=O)(=O)N3CCOCC3)cc2)cc1,inactive: 14.4%
7,O=C(NC1CCCCCC1)c1ccc(Br)o1,inactive: 10.8%
8,CC(=O)Nc1ccc(NC(=O)c2ccc(-n3c(C)ccc3C)cc2)cc1,inactive: 8.8%
9,COc1cc(/C=N/Nc2ccc(F)cc2F)cc(OC)c1O,inactive: 10.5%
10,CC1CC(C)CN(C(=O)Cc2c(C(=O)O)[nH]c3ccc(Cl)cc23)C1 (configuration not stated),inactive: -1.34%
11,CCCN1CCN(c2ncnc3c2nnn3Cc2ccccc2)CC1,inactive: 20.8%
12,COC(=O)c1c([N+](=O)[O-])c(OC)c(OC)c(OC)c1[N+](=O)[O-],inactive: 14.9%
13,CCOC(=O)c1sc(=S)n(-c2ccccc2)c1C,inactive: 11.3%
14,CCCNC(=O)C1(C)CCN(C(=O)c2ccc(OC(F)F)cc2)C1 (configuration not stated),inactive: -0.0296%
15,CCCCn1c(-c2cccc(F)c2)nc2c1c(=O)[nH]c(=O)n2CC(C)C,inactive: 1.05%
16,COc1ccc(CCN(Cc2nc3ccccc3c(=O)[nH]2)C(=O)C2CC2)cc1,inactive: 5.31%
17,COc1cc(F)ccc1-c1csc(C(NC(C)=O)c2ccc(F)c(F)c2)n1 (configuration not stated),inactive: 3.42%
18,O=C(CSc1nccc(=O)[nH]1)Nc1cccc2ccccc12,inactive: 6.98%
19,Cc1ccc(C(=O)OC(C)CN2C(C)CCCC2C)cc1 (configuration not stated),inactive: 22.4%
